Test results from ChEMBL document CHEMBL5661985, “In silico design of novel probes for the atypical opioid receptor MRGPRX2” (Nat Chem Biol, 2017).
Calls of active or inactive are those of the source. The calls are words filed in the database; no cut-off is given here.

Legend:
[1] = target: T1, Mas-related G-protein coupled receptor member X2 (Homo sapiens, UniProt Q96LB1); assay: Agonist activity at MRGPRX2 (unknown origin) expressed in HTLA cells assessed as induction of beta-arrestin 2 recruitment incubated for 18 to 24 hrs by PRESTO-Tango assay; assay type: functional, cell-based; settings: read-out: pEC50 (converted)
T1 sequence (Q96LB1 whole entry): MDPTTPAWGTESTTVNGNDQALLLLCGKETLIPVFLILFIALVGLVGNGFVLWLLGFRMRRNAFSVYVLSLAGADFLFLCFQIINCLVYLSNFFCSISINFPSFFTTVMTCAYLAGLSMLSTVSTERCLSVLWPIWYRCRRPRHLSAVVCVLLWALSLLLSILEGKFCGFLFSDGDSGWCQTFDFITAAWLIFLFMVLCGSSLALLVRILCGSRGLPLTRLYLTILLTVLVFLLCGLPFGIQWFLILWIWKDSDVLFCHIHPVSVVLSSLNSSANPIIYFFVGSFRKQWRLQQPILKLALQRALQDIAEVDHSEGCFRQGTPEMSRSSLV

[2] = target: T2, Mas-related G-protein coupled receptor member X2 (Homo sapiens) (UniProt Q96LB1); assay: Agonist activity at MRGPRX2 receptor in human LAD2 cells assessed as increase in intracellular calcium release by FLIPR assay; assay type: functional, cell-based
T2 sequence (whole entry): T1 sequence (Q96LB1 whole entry)
Method in brief: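 LAD2 human mast cells seeded 50,000/well in Tyrode's buffer with calcium dye, 1 h before drug; 10 s baseline, drug added, fluorescence followed 120 s; expressed as fold calcium release over baseline; n=3 in triplicate.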

[3] = target: T2, Mas-related G-protein coupled receptor member X2 (Homo sapiens); assay: Agonist activity at N-terminal Flag-tagged human MRGPRX2 receptor expressed in HEK-T cells assessed as increase in intracellular calcium release by FLIPR assay; assay type: functional, cell-based; settings: HEK-T cell
Method in brief: (§1)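 FLIPR calcium: FLP-IN/T-REX HEK-293-T stable line with N-terminal FLAG codon-optimized receptor, induced 24 h with 1 μg/mL tetracycline in 1% dialyzed FBS (uninduced cells as control); FLIPR calcium dye plus 2.5 mM probenecid 1 h 37°C; 10 s baseline, then drug in HBSS/20 mM HEPES/probenecid pH 7.4, 16-point curve 10 μM to 0.003 nM; fluorescence 120 s; fold over basal, n=3 triplicate.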

[4] = target: T1, Mas-related G-protein coupled receptor member X2; assay: Agonist activity at N-terminal Flag-tagged human MRGPRX2 receptor expressed in tetracycline-induced FLP-IN/T-REX 293 cells assessed as increase in intracellular calcium release by FLIPR assay; assay type: functional, cell-based
[5] = target: T2, Mas-related G-protein coupled receptor member X2 (Homo sapiens); assay: Agonist activity at N-terminal Flag-tagged human MRGPRX2 receptor expressed in tetracycline-induced HEK-T cells assessed as increase in intracellular calcium release by FLIPR assay; assay type: functional, cell-based; settings: HEK-T cell, filed as agonist; method in brief: as §1
[6] = target: T2, Mas-related G-protein coupled receptor member X2 (Homo sapiens); assay: Agonist activity at MRGPRX2 receptor in human LAD2 cells assessed as increase in degranulation incubated for 30 mins by beta-hexosaminidase assay; assay type: functional, cell-based; settings: filed as agonist
Method in brief: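 β-Hexosaminidase release: LAD2 cells in fresh medium 18 h, washed in Tyrode's buffer pH 7.4, 10,000 cells/well; drug (single concentration or 8-point curve) added in triplicate, 30 min 37°C; supernatant and Triton X-100 lysate each reacted with NAG in citrate pH 4.5 for 90 min 37°C, stopped with carbonate pH 10, A405; % release = released/total ×100, minus vehicle.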

HTLA [7] = assay: Agonist activity at MRGPRX2 D184E mutant (unknown origin) expressed in HTLA cells assessed as induction of beta-arrestin 2 recruitment incubated for 18 to 24 hrs by PRESTO-Tango assay; assay type: cell-based; settings: Homo sapiens, time 18-24 hrs
Method in brief: (§2)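 β-arrestin2 recruitment by PRESTO-Tango: HTLA cells transiently transfected (calcium phosphate) with codon-optimized MRGPRX2-Tango (WT or point mutant) or MRGPRB2-Tango, plated next day 20,000 cells/well on poly-L-lysine; drug in HBSS/20 mM HEPES/0.3% BSA pH 7.4 for 18–24 h; Bright-Glo luminescence (RLU); curves n=3 in triplicate, mutants n=4 in triplicate.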

HTLA [8] = assay: Agonist activity at MRGPRX2 E164D mutant (unknown origin) expressed in HTLA cells assessed as induction of beta-arrestin 2 recruitment incubated for 18 to 24 hrs by PRESTO-Tango assay; assay type: cell-based; settings: Homo sapiens, filed as agonist, time 18-24 hrs; method in brief: as §2
[9] = target: T2, Mas-related G-protein coupled receptor member X2 (Homo sapiens); assay: Antagonist activity at MRGPRX2 (unknown origin) expressed in HTLA cells assessed as reduction in (+/-)-TAN-67 induced beta-arrestin 2 recruitment at 30 uM incubated for 18 to 24 hrs by PRESTO-Tango assay; assay type: functional, cell-based; settings: time 18-24 hrs
[10] = target: T2, Mas-related G-protein coupled receptor member X2 (Homo sapiens); assay: Agonist activity at N-terminal Flag-tagged human MRGPRX2 receptor expressed in tetracycline-induced FLP-IN/T-REX 293 cells assessed as increase in intracellular calcium release up to 100 uM by FLIPR assay; assay type: functional, cell-based; method in brief: as §1
[11] = target: T3, Kappa-type opioid receptor (Homo sapiens, UniProt P41145); assay: Agonist activity at KOR (unknown origin) by Glo sensor assay; assay type: functional
[12] = target: T2, Mas-related G-protein coupled receptor member X2 (Homo sapiens); assay: Agonist activity at N-terminal Flag-tagged human MRGPRX2 receptor expressed in tetracycline-induced FLP-IN/T-REX 293 cells assessed as increase in intracellular calcium release 0.003 to 100000 nM by FLIPR assay; assay type: functional, cell-based; settings: dose 0.003-100000 nM; method in brief: as §1
[13] = target: Delta-type opioid receptor (Homo sapiens, UniProt P41143); assay: Displacement of [3H]-Naltrindole from DOR (unknown origin)
[14] = target: T3, Kappa-type opioid receptor; assay: Displacement of [3H]-Diprenorphine from KOR (unknown origin)
Mu-type opioid receptor = Mu-type opioid receptor (Homo sapiens, UniProt P35372); assay: Displacement of [3H]-DAMGO from MOR (unknown origin)
Chain of UniProt P35372 (P35372 whole entry): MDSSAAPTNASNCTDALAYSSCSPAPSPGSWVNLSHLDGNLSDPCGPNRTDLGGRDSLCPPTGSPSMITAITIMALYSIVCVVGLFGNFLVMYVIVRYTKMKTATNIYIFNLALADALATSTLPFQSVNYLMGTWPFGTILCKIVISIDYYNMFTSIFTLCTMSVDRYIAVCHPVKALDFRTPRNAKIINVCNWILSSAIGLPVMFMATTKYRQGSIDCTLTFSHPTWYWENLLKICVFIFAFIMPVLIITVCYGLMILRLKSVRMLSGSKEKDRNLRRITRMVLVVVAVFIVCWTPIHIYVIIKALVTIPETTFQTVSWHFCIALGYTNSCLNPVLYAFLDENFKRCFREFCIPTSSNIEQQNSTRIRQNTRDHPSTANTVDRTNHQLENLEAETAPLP

T3 sequence (P41145 whole entry): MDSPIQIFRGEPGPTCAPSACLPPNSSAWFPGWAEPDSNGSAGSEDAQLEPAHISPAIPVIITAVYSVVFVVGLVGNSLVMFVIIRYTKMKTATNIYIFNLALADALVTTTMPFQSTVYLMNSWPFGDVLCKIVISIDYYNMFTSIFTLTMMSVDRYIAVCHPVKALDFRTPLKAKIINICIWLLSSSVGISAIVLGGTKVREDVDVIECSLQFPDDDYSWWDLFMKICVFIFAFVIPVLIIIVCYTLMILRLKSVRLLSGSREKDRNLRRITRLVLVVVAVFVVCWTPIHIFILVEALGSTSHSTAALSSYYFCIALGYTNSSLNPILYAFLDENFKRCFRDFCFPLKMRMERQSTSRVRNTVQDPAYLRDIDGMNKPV
Chain of UniProt P41143 (P41143 whole entry): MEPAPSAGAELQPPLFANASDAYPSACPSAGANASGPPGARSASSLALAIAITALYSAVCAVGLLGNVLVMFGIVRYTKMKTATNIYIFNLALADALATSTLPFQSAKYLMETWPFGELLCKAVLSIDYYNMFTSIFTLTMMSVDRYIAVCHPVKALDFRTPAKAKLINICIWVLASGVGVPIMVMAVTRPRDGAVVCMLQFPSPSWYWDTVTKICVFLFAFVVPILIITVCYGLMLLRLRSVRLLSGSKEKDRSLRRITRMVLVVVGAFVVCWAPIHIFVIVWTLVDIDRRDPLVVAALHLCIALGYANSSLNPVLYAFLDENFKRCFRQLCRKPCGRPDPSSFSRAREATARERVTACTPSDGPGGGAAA

Q: `COc1ccc2c3c1O[C@H]1[C@@H](O[C@@H]4O[C@H](C(=O)O)[C@@H](O)[C@H](O)[C@H]4O)C=C[C@H]4[C@@H](C2)N(C)CC[C@@]341` was tested. Which EC50 [1] did it give?
A: 43.7 µM

Q: For `COC(=O)[C@@H]1C[C@H](OC(C)=O)C(=O)[C@H]2[C@@]1(C)CC[C@H]1C(=O)O[C@H](c3ccoc3)C[C@]21C`, which Activity [2] is on record?
A: inactive

Q: What does the source list for `COC1=C[C@@H]2[C@@H]3Cc4ccc(OC)c(O)c4[C@]2(CCN3C)CC1=O` [SINOMENINE]?
A: EC50 [1]: 5.37 µM; Activity [3]: inactive; EC50 ([4]; read-out: pEC50 (converted)): 3.98 µM; Activity [5]: Active

Q: What does the source list for `CN1CC[C@@]23c4c5ccc(O)c4O[C@@H]2[C@H](O)C=C[C@@H]3[C@@H]1C5`?
A: Activity [6]: Active; EC50 [1]: 3.39 µM; Activity (HTLA [7]): inactive; Activity ([2]; filed as agonist): Active; Activity (HTLA [8]): Active; EC50 ([4]; read-out: pEC50 (converted)): 5.01 µM

Q: Which results are given for `O=C1CC[C@@]2(O)[C@H]3Cc4ccc(O)c5c4[C@@]2(CCN3CC2CC2)[C@H]1O5`?
A: Activity [9]: inactive; Activity [10]: inactive

Q: Which EC50 ([4]; read-out: pEC50 (converted)) does the source give for `COC1=CC=C2[C@@H]3Cc4ccc(OC)c5c4[C@@]2(CCN3C)[C@H]1O5` here?
A: 70.8 µM

Q: For `Oc1ccc2c3c1O[C@H]1c4[nH]c5ccccc5c4C[C@@]4(O)[C@@H](C2)N(CC2CC2)CC[C@]314`, which Activity [9] is on record?
A: inactive

Q: With `C=CC[N+]1([C@H]2C[C@H]3[C@@H]4CC[C@H]5C[C@H](O)[C@@H](N6CCOCC6)C[C@]5(C)[C@H]4CC[C@]3(C)[C@H]2OC(C)=O)CCCC1` [ROCURONIUM] as the molecule, how does the EC50 [1] read?
A: > 31.6 µM

Q: And the EC50 ([4]; read-out: pEC50 (converted))?
A: > 31.6 µM

Q: And the Activity [10]?
A: inactive

Q: How did the EC50 [11] turn out when H-YGGFLR-OH was run?
A: 0.137 µM

Q: And the Activity [12]?
A: inactive

Q: `C[C@@H]1[C@@H]2Cc3ccc(O)cc3[C@@]1(C)CCN2CC1CC1` was tested. Which Activity [10] did it give?
A: inactive

Q: Which EC50 [1] does the source give for `CCN(CC)C(=O)c1ccc(C2=CC3(CCNCC3)Oc3cccc(O)c32)cc1` [ADL-5859] here?
A: 5.13 µM

Q: With H-YGGFLRKY-OH as the molecule, how does the EC50 [11] read?
A: 0.0012 µM

Q: And the EC50 ([4]; read-out: pEC50 (converted))?
A: 4.27 µM

Q: Which results are given for `COc1ccc2c3c1O[C@@H]1[C@H](O)C=C[C@@H]4[C@H](C2)N(C)CC[C@]341`?
A: EC50 [1]: 5.5 µM; EC50 ([4]; read-out: pEC50 (converted)): 13.8 µM

Q: What does the source list for `COc1c(N2C[C@@H]3CCCN[C@@H]3C2)c(F)cc2c(=O)c(C(=O)O)cn(C3CC3)c12` [MOXIFLOXACIN]?
A: EC50 [1]: > 31.6 µM; EC50 ([4]; read-out: pEC50 (converted)): > 31.6 µM; Activity [10]: inactive

Q: `C[C@@H](NC(=O)[C@@H](N)Cc1ccc(O)cc1)C(=O)NCC(=O)N(C)[C@@H](Cc1ccccc1)C(=O)NCCO` was tested. Which Activity [2] did it give?
A: inactive

Q: `CN1CC[C@]2(c3cccc(O)c3)Cc3nc4ccccc4cc3C[C@H]2C1` was tested. Which EC50 [13] did it give?
A: 0.961 µM

Q: What about the Ki [13] of the same molecule?
A: 0.216 µM

Q: And the EC50 [1]?
A: 0.427 µM

Q: And the EC50 [14]?
A: 11.1 µM

Q: What about the Ki [14] of the same molecule?
A: 2.76 µM

Q: And the EC50 ([4]; read-out: EC50)?
A: 0.29 µM

Q: And the EC50 (Mu-type opioid receptor)?
A: 2.11 µM

Q: And the Ki (Mu-type opioid receptor)?
A: 1.56 µM
